Among all 310,000 compounds or so, about 14,000 (4.5%) showed an effect of 50% or more. Effects have a minus sign here. Some of the results follow.
Molecular target: human ether-à-go-go-related gene (hERG) potassium channel (human, UniProt Q12809)
Test: primary screen, population patch clamp on CHO cells stably expressing hERG
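Note: peak tail current of the secondary pulse compared with the same well before compound.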

Chain of human ether-à-go-go-related gene (hERG) potassium channel (Q12809 whole entry, looked up): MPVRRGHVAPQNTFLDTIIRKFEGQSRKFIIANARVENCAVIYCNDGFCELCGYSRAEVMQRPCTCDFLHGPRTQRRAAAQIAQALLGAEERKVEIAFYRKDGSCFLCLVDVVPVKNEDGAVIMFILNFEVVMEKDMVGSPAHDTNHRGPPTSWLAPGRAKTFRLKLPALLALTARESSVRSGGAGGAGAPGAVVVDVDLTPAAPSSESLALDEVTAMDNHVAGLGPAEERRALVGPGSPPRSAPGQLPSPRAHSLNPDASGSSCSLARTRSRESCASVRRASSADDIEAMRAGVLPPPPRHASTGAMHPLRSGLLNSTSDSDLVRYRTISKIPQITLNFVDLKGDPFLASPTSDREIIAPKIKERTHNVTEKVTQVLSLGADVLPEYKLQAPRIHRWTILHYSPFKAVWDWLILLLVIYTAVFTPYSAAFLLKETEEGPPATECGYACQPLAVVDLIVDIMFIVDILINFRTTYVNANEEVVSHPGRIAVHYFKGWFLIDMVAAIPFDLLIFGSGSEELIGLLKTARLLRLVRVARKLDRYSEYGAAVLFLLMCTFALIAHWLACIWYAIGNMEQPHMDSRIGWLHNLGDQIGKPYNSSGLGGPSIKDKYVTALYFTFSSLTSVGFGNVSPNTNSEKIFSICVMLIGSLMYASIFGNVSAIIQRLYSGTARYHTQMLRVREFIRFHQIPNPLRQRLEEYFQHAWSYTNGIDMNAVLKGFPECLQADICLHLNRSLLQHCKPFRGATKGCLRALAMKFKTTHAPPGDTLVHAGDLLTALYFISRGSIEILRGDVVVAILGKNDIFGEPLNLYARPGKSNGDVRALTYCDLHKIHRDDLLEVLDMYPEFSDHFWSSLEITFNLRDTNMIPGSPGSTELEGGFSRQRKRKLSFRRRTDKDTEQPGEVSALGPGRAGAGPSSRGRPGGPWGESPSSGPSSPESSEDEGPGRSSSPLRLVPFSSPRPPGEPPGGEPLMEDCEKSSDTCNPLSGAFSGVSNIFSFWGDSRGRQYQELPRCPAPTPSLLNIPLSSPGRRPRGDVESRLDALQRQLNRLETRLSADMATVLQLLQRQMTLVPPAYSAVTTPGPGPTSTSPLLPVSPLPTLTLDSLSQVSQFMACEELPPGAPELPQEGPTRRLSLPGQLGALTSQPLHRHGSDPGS

| SMILES | hERG current change (%, negative = inhibition) at 10uM [%] |
| --- | --- |
| O=C(CN1C(=O)NC2(CCCC2)C1=O)NNC(=O)c1ccccc1F | 14.2 |
| O=C(O)c1cc2nc3c(c(C(F)(F)F)n2n1)CCCC3 | 19.4 |
| CN1C(=O)C(C)(C)c2cc(S(=O)(=O)N3CCCC(C(=O)NCc4ccc(Cl)cc4)C3)ccc21 (stereo not drawn) | -8.2 |
| O=C(Cn1nnc(-c2ccc(Cl)cc2)n1)NCc1ccco1 | 16.7 |
| CN1C(=S)NC(C)(C)CC1(C)c1ccc(O)cc1O (stereo not drawn) | 13.3 |
| CN(C)NC(=O)c1ccsc1NC(=O)c1ccc(S(=O)(=O)N(C)C)cc1 | 2.78 |
| CSc1cccc(NC(=O)C2CCN(S(=O)(=O)c3ccc(F)cc3)CC2)c1 | 3.45 |
| C=C1CC[C@@]23CC[C@]4(C)[C@@](OC2=O)([C@@H]3C1)[C@H]1O[C@H]1C1[C@@]2(C)CC[C@H](O)C(C)(C)C2CC[C@]14C (stereo partly drawn) | -12.1 |
| NS(=O)(=O)c1ccc(CCNC(=O)COC(=O)c2cc([N+](=O)[O-])ccc2N2CCOCC2)cc1 | 9.02 |
| Cc1noc(C)c1S(=O)(=O)N1CCC(C(=O)N2CCN(Cc3ccc4c(c3)OCO4)CC2)CC1 | -22.3 |
| Cc1ccc(C)c(-n2c(Cc3cc(=O)[nH]c(=O)[nH]3)nnc2SC(C)C)c1 | 1.98 |
| COc1ccc(OC)c(NC(=O)CCn2cccc2)c1 | 4.08 |
| COc1ccc(OC)c(C2/C(=C(/O)c3cnn(-c4ccccc4)c3C)C(=O)C(=O)N2CCN(C)C)c1 (stereo not drawn) | 20.1 |
| CCn1c(=O)cc(O)c2c(=O)n(C)c(=O)n(C)c21 | 9.61 |
| S=C(NCc1ccco1)Nc1ccccc1Cl | -52 |
| c1ccc(SCc2nc(-c3ccncc3)no2)cc1 | -6.64 |
| OCCCNc1nc(-c2ccccc2)nc2c1oc1ccccc12 | -9.08 |
| CC(C)(C)NC(=O)N1CCn2cccc2C1c1ccccc1F (stereo not drawn) | 0.239 |
| O=C(c1ccco1)N1N=C(c2ccncc2)CC1(O)C(F)(F)F (stereo not drawn) | -4.02 |
| O=C1NCCN1Cc1ccccc1F | -0.688 |
| NC(=O)C1=C[C@@H](c2ccccc2)C[C@@H](OCCCCO)O1 | 5.53 |
| CN(C)Cc1cc(C(C)(C)C)cc(C(C)(C)C)c1O | 2.44 |

| SMILES | hERG current change (%, negative = inhibition) at 10uM [%] |
| --- | --- |
| Cc1cccn2cc(-c3cc4ccccc4oc3=O)nc12 | 10.3 |
| CC1CCc2c(sc(NC(=O)C3=COCCO3)c2C(N)=O)C1 (stereo not drawn) | 11.1 |
| COc1ccc(S(=O)(=O)N2CCN(c3ccc(C)cc3C)CC2)cc1OC | 5.72 |
| Cc1ccc(S(=O)(=O)N2CCCCC2)cc1NC(=O)COC(=O)Cc1c(F)cccc1Cl | -0.979 |
| CCCCOc1ccc(C(=O)NCc2ccncc2)cc1 | 1.76 |
| CC(=O)N1N=C(c2ccncc2)OC12CCCCCC2 | -7.12 |
| CC(=O)c1ccc(NC(=O)/C(=C\c2ccco2)NC(=O)c2ccco2)cc1 | -15.9 |
| Cc1ccc(-c2nc3ccccc3[nH]2)cc1NC(=O)/C=C/c1ccco1 | -31.4 |
| Cc1cccc(OCC(O)CNC(=O)c2ccccc2C(=O)O)c1 (stereo not drawn) | -21.2 |
| CCc1cc2c(=O)c(-c3nc4ccccc4[nH]3)coc2c(CN2CCCCC2C)c1O (stereo not drawn) | -20.6 |
| O=C(CN(CC1CCCO1)C(=O)CNS(=O)(=O)c1ccccc1)NCCc1ccccc1 (stereo not drawn) | 10.8 |
| Cc1oc(S(=O)(=O)N2CCOCC2)cc1C(=O)Nc1ccc(F)cc1 | -6.29 |
| CCC(=O)OCn1nnc2ccccc2c1=O | 15.3 |
| COc1cc2c(cc1OC)C(c1ccc(OC)c(OC)c1OC)CC(=O)N2 (stereo not drawn) | 22.6 |
| CCOc1ncccc1C(=O)OCC(=O)Nc1ccc(C(N)=O)cc1 | 12.6 |
| COc1ccc(C2C(C(=O)N3CCN(c4ccccc4)CC3)c3ccccc3C(=O)N2C)cc1 (stereo not drawn) | -31.5 |
| CCCN(CCC)CC(C)(C)NS(=O)(=O)c1ccc(Cl)cc1 | -17.1 |
| O=C(NCCc1ccccc1)C1CC(=O)N(C2CCCCC2)C1 (stereo not drawn) | 19.7 |
| O=c1[nH]c(=S)[nH]c2c1C(c1cc([N+](=O)[O-])c(N3CCOCC3)cc1N1CCOCC1)O2 (stereo not drawn) | 22 |
| Cc1cccc(C2c3[nH]c4ccccc4c3CCN2C(=O)c2ccc(=O)[nH]c2)n1 (stereo not drawn) | 34.3 |
| Cc1cc(C)n2nc(CC(=O)NC3CCCCCC3)nc2n1 | 5.03 |
| COc1ccccc1-c1nnc(SCC(=O)N2CCCC2)o1 | 2.94 |

| SMILES | hERG current change (%, negative = inhibition) at 10uM [%] |
| --- | --- |
| Cc1ccc(S(=O)(=O)NCCC(c2ccccc2)c2ccccc2)cc1C(=O)O | -0.741 |
| COc1ccc(Oc2ccc(N/C=C3/CCCC3=O)cc2)cc1 | -6.26 |
| O=C(CN1C(=O)C(=O)N(C2CCCC2)C1=O)Nc1ccc(N2CCOCC2)cc1 | 23.8 |
| CC(C)c1cc(CNC(=O)CCc2nnc(CCCc3ccccc3)o2)on1 | 0.291 |
| N#CCC(=O)Nc1ccc(C(=O)OCC(=O)N(Cc2ccccc2)C2CCS(=O)(=O)C2)cc1 (stereo not drawn) | 18.6 |
| Cc1cc(C(=O)N2CCCC(CNS(=O)(=O)c3cccs3)C2)nn1C (stereo not drawn) | 15.7 |
| O=C(Cn1nnc(-c2cccs2)n1)OC1CCCCC1 | -0.871 |
| CCc1ccc(OCC(=O)N2CCN(c3ccccc3F)CC2)cc1 | 20.2 |
| O=C(COc1cccc2ccccc12)NNC(=O)c1cccs1 | 5.36 |
| O=C(NNC1CC(=O)N(c2ccc(Br)cc2)C1=O)c1ccccn1 (stereo not drawn) | -4.01 |
| CCc1ccn2cc(-c3ccc4c(c3)OCO4)nc2c1 | -13.3 |
| CCOc1ccc(NC(=S)NCCCN2CCOCC2)cc1 | 10.7 |
| CCOC(=O)N1CCC(NC(=O)C2CCC(Cn3c(=O)[nH]c4ccccc4c3=O)CC2)CC1 (stereo not drawn) | -11.9 |
| COCCNC(=O)C(c1ccc(C)cc1)N(C(=O)CCC(=O)Nc1ccccn1)c1ccc(F)cc1 (stereo not drawn) | -11.6 |
| Cc1cccc2cc(C#N)c(N3CCCC3)nc12 | 13.2 |
| CCOC(=O)C1CCN(S(=O)(=O)c2ccc3c(c2)N(C(C)=O)CCO3)CC1 | -67.2 |
| CC1(C)CC(NC(=O)C2CCN(S(=O)(=O)c3ccc(F)cc3)CC2)CC(C)(C)N1 | 14 |
| Cc1ccnc(NC(=O)CCC(=O)N(CC(=O)NC(C)(C)C)c2ccc(F)c(Cl)c2)c1 | 12.4 |
| O=Cc1cn(CC(=O)N2CCCc3ccccc32)c2ccccc12 | 15 |
| COc1ccc(Cc2noc(CN3CCN(C4CCc5ccccc5C4)CC3)n2)cc1OC (stereo not drawn) | -68.8 |
| COc1ccc(-n2nc(C(=O)NCC(=O)N3CCCCCC3)c3ccccc3c2=O)cc1Cl | -16.9 |
| Cc1ccc(C(=O)N/C(=C\c2ccco2)C(=O)NCCN2CCOCC2)cc1 | -23.2 |

| SMILES | hERG current change (%, negative = inhibition) at 10uM [%] |
| --- | --- |
| CCC(C(=O)NCCN1CCN(C)CC1)n1c(C)c2cnn(-c3ccccc3)c(=O)c2c1C (stereo not drawn) | 11.1 |
| CCOc1cc(NC(=O)C2CCCO2)c(OCC)cc1NC(C)=O (stereo not drawn) | 17.1 |
| CCOC(=O)c1sc(N(Cc2ccccc2)C(=O)CSc2nnc(C3CC3)n2N)nc1C | -26.7 |
| N#CCn1nnc(-c2ccc3c(c2)OCO3)n1 | -4.09 |
| CCCN(CC(=O)Nc1ccc(C(N)=O)cc1)CC(=O)Nc1ccc(Cl)cc1Cl | 3.6 |
| CN(C)C(CNc1ccc(C(N)=O)cc1[N+](=O)[O-])c1ccccc1 (stereo not drawn) | -0.959 |
| COc1ccc(CNC(=O)[C@@H](NC(=O)C2CCN(C(=O)[C@@H](N)CC(C)C)CC2)C(C)C)cc1 | 18.8 |
| O=C1CN(C(=O)c2ccccc2[N+](=O)[O-])C(c2ccccc2)c2cc(Br)ccc2N1 (stereo not drawn) | -66.5 |
| CCOC12CC(C)(C)CC(C)(CC3=C1C(=O)CC(C)(C)C3)C2 (stereo not drawn) | -43.3 |
| Cc1ccc(N(C(=O)c2cccs2)C2C=CS(=O)(=O)C2)cc1 (stereo not drawn) | -24.4 |
| Cc1ccc(S(=O)(=O)N2CCN(CC(=O)N/N=C/c3ccc(Br)s3)CC2)cc1 | -49 |
| Cc1nn(C(C)C(=O)c2cccc(Cl)c2)c(C)c1[N+](=O)[O-] (stereo not drawn) | 14 |
| O=C(NNC(=S)Nc1ccccc1)c1ccco1 | -10.7 |
| COc1cc(NC(C)CCc2ccccc2)cc(OC)c1OC (stereo not drawn) | 17.1 |
| COc1ccc(CCCc2n[nH]c(=S)n2C)cc1C | 12.4 |
| CCc1noc(C)c1C(=O)N(C)CC(=O)Nc1ccc(Cl)c(Cl)c1 | -14.1 |
| CCn1c(SCC(=O)N2CC(C)OC(C)C2)nc2c([nH]c3ccccc32)c1=O (stereo not drawn) | 1.37 |
| O=C(CC[NH+]1CCCCC1)c1ccccc1.[Cl-] | -4.89 |
| Cc1cc(C(=O)COc2ccccc2[N+](=O)[O-])c(C)n1-c1cccc(S(=O)(=O)N2CCOCC2)c1 | -9.82 |
| Cc1ccc(S(=O)(=O)N2CCCCC2CCNC(=O)C(=O)NCCc2ccco2)cc1 (stereo not drawn) | -33.1 |
| O=C(O)c1ccccc1-c1ccccc1C(=O)Nc1nc2ccccc2s1 | 2.46 |
